Source: the supplement of paper PMC10126150
Values marked as one replicate rest on one cluster of the flow cell; about a third of the high ones do not repeat.

The sequences below were run on ATP (assay: switch fluorescence ratio, 500 uM ATP over buffer (Cy3 cluster intensity, sum of 5 cycles each) (fold (ratio)); higher = stronger signal-on switching upon ATP binding; sequences stand for … in TCGTCGGCAGCGTCAGATGTGTATAAGAGACAGTTTTTTTTTTTTTTTTTTTTTTTTT…TC). Details: aptamer strand: ATP DNA aptamer (quencher-CACCTGGGGGAGTATTGCGGAGGAAGG + anchor), 100 nM annealed; ATP concentration: 500 uM; one replicate.
Method in brief: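 Values give the fluorescence ratio for each switch-domain sequence, averaged from per-cluster ratios of summed target-cycle to summed buffer-cycle Cy3 intensity. The Cy3-labelled switching-strand clusters sat on a modified Illumina MiSeq flow-cell, were annealed to 100 nM quencher-labelled ATP aptamer, and were imaged in selection buffer, then after 15 min with 500 uM ATP at 22 °C. Five cycles ran with NaOH stripping and re-annealing between them, and clusters outside 100-1000 RFU were excluded.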
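Also: ATP exposure 15 min at 22 °C before imaging.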

Sequence | switch fluorescence ratio
CAAATAGTAA | 0.998
CAAATATGGG | 0.973
CAAATCAAGC | 0.981
CAAATGTTCT | 0.994
CAAATTAATC | 0.966
CAACATATTA | 1.01
CAACATTCTT | 0.981
CAACCCACTA | 1.36
CAACCCATGC | 1.43
CAACCCCTTC | 1.09
CAACCCTTGC | 1.71
CAACCGATGG | 1.02
CAACCGCCAC | 2.04
CAACCGGGCA | 1.04
CAACGACACA | 1.41
CAACGCGGCA | 1.17
CAACGGACAA | 1.29
CAACGGGGCC | 0.95
CAACGTTTGG | 0.998
CAACTAAACT | 1.02
CAACTAATA | 1.04
CAACTAGGG | 0.985
CAACTATGGA | 0.982
CAACTATGTC | 1.01
CAACTCGGAC | 1.06
CAACTGAACA | 1.04

Sequence | switch fluorescence ratio
CAACTGCCTC | 1.08
CAACTGCGCC | 1.29
CAACTGGTTA | 0.994
CAACTGTTTG | 1.02
CAACTTGATG | 0.982
CAACTTGGTT | 0.995
CAAGACAAGC | 1.08
CAAGACCTTG | 0.958
CAAGACGCTT | 1.05
CAAGACTGCA | 1.05
CAAGAGAGCT | 0.978
CAAGAGCAAG | 1.43
CAAGAGTCAT | 0.991
CAAGAGTCGG | 1
CAAGATTGGG | 1.01
CAAGCAAGT | 1.19
CAAGCATCTA | 0.972
CAAGCCGTGG | 0.993
CAAGCGGTGA | 0.996
CAAGCGGTGG | 1.08
CAAGCTTCGA | 1.02
CAAGCTTTTG | 0.974
CAAGGCAATC | 5.93
CAAGGCACAC | 1.37
CAAGGCGCTA | 1.05
CAAGGCTGGA | 0.964

Sequence | switch fluorescence ratio
CAAGGGCGCG | 0.951
CAAGGGGTTA | 0.956
CAAGGGTGTT | 1.05
CAAGGTCAAA | 1.04
CAAGGTCTGT | 0.998
CAAGTAGGAA | 1.01
CAAGTCTTCG | 0.977
CAAGTTACCA | 1.18
CAAGTTGCGA | 1.04
CAAGTTTCCA | 0.963
CAAGTTTCGC | 0.963
CAATAAACAC | 1.03
CAATAAAGA | 1.02
CAATAAGACC | 1.06
CAATAATGTC | 1.08
CAATACTGCG | 1.21
CAATAGCCAC | 1.19
CAATATGGGT | 1
CAATATTCGT | 1
CAATCAGATC | 1.02
CAATCCGGGT | 0.938
CAATCGATGA | 0.969
CAATCGC | 1.1
CAATGAAAGG | 0.984
CAATGACGAT | 1.04
CAATGATGCG | 0.964

Sequence | switch fluorescence ratio
CAATGCCCGC | 0.954
CAATGCCGTG | 0.946
CAATGCCTGG | 1.02
CAATGTAAGG | 0.99
CAATGTATAT | 0.965
CAATGTGCGA | 0.999
CAATTAAATC | 1.01
CAATTCA | 0.963
CAATTCCGCC | 1.17
CAATTCTGG | 0.985
CAATTCTGGA | 0.999
CAATTTAACC | 1.02
CAATTTATCC | 0.986
CAATTTGATT | 1.02
CACAAAACTT | 1.07
CACAAAGAAT | 0.966
CACAAATGTG | 0.984
CACAACAGTT | 0.97
CACAATGTAT | 1.05
CACACATATT | 1.07
CACACCAGTT | 1.12
CACACGCGA | 2.33
CACACTATAT | 1.05
CACACTGCGT | 1.06
CACAGAAACC | 1.12
CACAGCGTCT | 0.995

Sequence | switch fluorescence ratio
CACAGGAAC | 1.05
CACAGGAACC | 1.05
CACAGGATGG | 1.01
CACAGGGGCC | 1.08
CACAGGGGCG | 0.965
CACAGTAGCC | 1.05
CACAGTATGA | 1.09
CACATATCCC | 1.04
CACATTATC | 1
CACATTGAG | 0.987
CACCAACCCT | 1.16
CACCAGATTA | 0.974
CACCATGTGG | 1.04
CACCCAGAAC | 1.32
CACCCGATA | 1.06
CACCGACGGC | 1.71
CACCGCCTGT | 1.27
CACCGGCCCT | 1.09
CACCGGGTGG | 1.41
CACCGTGATC | 3.98
CACCTATATG | 1.03
CACCTCATCA | 1.05
CACCTGGGAA | 0.963
CACCTGGTCG | 1.07
CACCTTGGAA | 1.03
CACGACAGTA | 1.09

Sequence | switch fluorescence ratio
CACGAGAG | 1.05
CACGAGTAGT | 1.02
CACGATAGAA | 1.09
CACGATTAAC | 1.21
CACGCCTTAC | 4.65
CACGCGCCTG | 1.08
CACGCTGAG | 1.22
CACGGAGGG | 0.965
CACGGATCCG | 1.02
CACGGGAAGG | 1.03
CACGGGGCTA | 0.993
CACGGGGTC | 1
CACGGGTTTT | 1.02
CACGGTGTGG | 0.992
CACGTCAGGT | 1.1
CACGTCATTA | 1.21
CACGTCGCGA | 0.985
CACGTGAACG | 0.978
CACGTGGCG | 1.03
CACGTGTTGT | 0.962
CACGTTGCGG | 0.993
CACGTTTAAT | 1.08
CACGTTTATG | 0.954
CACTACAGTT | 1.05
CACTATCCCG | 0.983
CACTATCGGC | 1.07

Sequence | switch fluorescence ratio
CACTATCGGG | 1.02
CACTATTCAG | 0.952
CACTCAATCT | 1.07
CACTCGTTAT | 0.951
CACTCTAGAG | 0.988
CACTGAACGT | 1.17
CACTGATTTT | 1.01
CACTGGGAGA | 1.02
CACTGTAGAT | 1.11
CACTGTTGTG | 1.01
CACTTACGAT | 1.34
CACTTCCCGC | 2.59
CACTTCTACA | 1.18
CACTTTTTTG | 0.983
CAGAACGTGC | 1.06
CAGAAGATGC | 1
CAGAAGCCCG | 0.998
CAGAAGCCGG | 0.968
CAGAATGAAG | 0.998
CAGACAAAC | 1.2
CAGACAATTT | 1.03
CAGACAGAAT | 1.03
CAGACAGACA | 1.07
CAGACAGTAC | 1.98
CAGACATTAG | 0.984
CAGACCCAGG | 1.19

Sequence | switch fluorescence ratio
CAGACTACCT | 1.16
CAGACTAGAT | 1.03
CAGACTATCC | 1.06
CAGACTCGTA | 0.968
CAGACTCTTT | 1.02
CAGACTTAG | 0.989
CAGAGCTGTA | 1.13
CAGAGCTT | 0.981
CAGAGGTATA | 0.989
CAGAGTACAT | 1.02
CAGAGTATGG | 1.02
CAGAGTGACA | 1
CAGAGTGCTA | 1.02
CAGAGTGTTT | 0.988
CAGAGTTAGG | 0.982
CAGATACCTT | 1.09
CAGATATAGG | 1.01
CAGATGGAAG | 1
CAGATGTTGT | 0.987
